# Measurements reported in PMC4336329 (PLoS ONE, 2015).
# Hit rate of the full screen: of about 310,000 compounds, about 14,000 (4.5%) showed an effect of 50% or more. The effect is printed as a negative number. The list shows a part of the results.
# Biological target: human ether-à-go-go-related gene (hERG) potassium channel (human, UniProt Q12809)
# Experiment: primary screen, population patch clamp on CHO cells stably expressing hERG
# 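Further: peak tail current of the secondary pulse compared with the same well before compound.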
# human ether-à-go-go-related gene (hERG) potassium channel, sequence (Q12809 whole entry, looked up): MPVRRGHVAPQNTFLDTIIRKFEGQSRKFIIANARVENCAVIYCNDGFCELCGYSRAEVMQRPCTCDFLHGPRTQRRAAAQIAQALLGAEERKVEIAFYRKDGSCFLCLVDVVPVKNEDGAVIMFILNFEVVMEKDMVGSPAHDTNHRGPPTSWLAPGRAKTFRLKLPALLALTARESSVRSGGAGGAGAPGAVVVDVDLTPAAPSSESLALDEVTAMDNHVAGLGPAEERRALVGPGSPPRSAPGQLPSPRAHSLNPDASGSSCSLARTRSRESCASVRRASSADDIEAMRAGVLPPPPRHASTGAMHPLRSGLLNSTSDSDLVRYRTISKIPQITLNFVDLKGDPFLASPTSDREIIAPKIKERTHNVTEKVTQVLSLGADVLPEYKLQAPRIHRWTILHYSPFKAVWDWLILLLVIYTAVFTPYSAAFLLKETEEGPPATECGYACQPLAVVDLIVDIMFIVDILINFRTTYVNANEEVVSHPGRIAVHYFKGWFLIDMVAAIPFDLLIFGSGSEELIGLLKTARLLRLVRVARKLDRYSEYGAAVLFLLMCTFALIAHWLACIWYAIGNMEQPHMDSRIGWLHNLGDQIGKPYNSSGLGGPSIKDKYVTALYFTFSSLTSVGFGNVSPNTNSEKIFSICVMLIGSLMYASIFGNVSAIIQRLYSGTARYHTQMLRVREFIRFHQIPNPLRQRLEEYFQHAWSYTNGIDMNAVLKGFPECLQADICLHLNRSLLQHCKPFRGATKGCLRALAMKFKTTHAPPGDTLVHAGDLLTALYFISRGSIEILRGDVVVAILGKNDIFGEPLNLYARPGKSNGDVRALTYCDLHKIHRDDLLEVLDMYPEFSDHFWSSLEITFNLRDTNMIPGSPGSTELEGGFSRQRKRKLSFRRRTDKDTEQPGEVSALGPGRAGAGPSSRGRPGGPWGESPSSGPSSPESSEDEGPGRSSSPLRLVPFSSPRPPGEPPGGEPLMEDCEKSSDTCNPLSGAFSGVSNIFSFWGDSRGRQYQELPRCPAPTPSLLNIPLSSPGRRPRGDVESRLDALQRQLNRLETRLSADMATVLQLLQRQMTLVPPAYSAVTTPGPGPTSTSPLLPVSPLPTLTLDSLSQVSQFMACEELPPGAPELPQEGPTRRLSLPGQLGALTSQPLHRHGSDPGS
row,SMILES,"hERG current change (%, negative = inhibition) at 10uM"
1,CCn1nc(C)c(NC(=O)CSc2nnc(-c3ccco3)n2C)c1C,0.23%
2,CC(C)Cn1c(=O)c2sccc2n2c(CCCC(=O)NC3CCN(Cc4ccccc4)CC3)nnc12,-30.6%
3,C=CCN1C=CC(=CC=C(C#N)C#N)C=C1,-0.0616%
4,Cc1cc(C)cc(N(CC(=O)Nc2ccccc2C(=O)N2CCOCC2)S(C)(=O)=O)c1,0.143%
5,COc1cc(C#N)ccc1OCC(=O)NCCC1=CCCCC1,-13.2%
6,CC1CCN(C(=S)c2ccc(O)cc2)CC1,-14.1%
7,O=C(Nc1ccccc1)N1CCCCC1c1cccnc1 (stereo not drawn),-1.03%
8,O=c1[nH]c(CSc2ncc(-c3ccc(F)cc3)n2Cc2ccco2)nc2ccccc12,-8.9%
9,COc1cccc(C(=O)NCCOc2cc(C)cc(C)c2)c1,-9.93%
10,O=C1c2ccsc2SCCN1Cc1ccccc1,-7.08%
11,C/C(=N/NC(=O)OC(C)(C)C)c1ccco1,5.72%
12,Cc1ccc(CNCc2cc3c(C(C)(C)C)nn(-c4ccccc4)c3[nH]c2=O)cc1,-8.46%
13,CCCCn1c(N)c(N(CC(C)C)C(=O)CC2OC(=O)c3ccccc32)c(=O)[nH]c1=O (stereo not drawn),1.76%
14,CCOC(=O)c1cnc(SC)nc1Oc1cccc(NC(=O)c2ccc(Cl)cc2)c1,5.09%
15,O=C(CCNS(=O)(=O)c1ccccc1)OCc1nnc(-c2ccccc2)o1,2.89%
16,CC(CC(=O)OCC(=O)NCc1ccc(Cl)cc1)c1ccccc1 (stereo not drawn),-7.65%
17,NC(=O)C1(N2CCCCC2)CCN(C2CC(=O)N(Cc3ccc(N4CCCC4=O)cc3)C2=O)CC1 (stereo not drawn),5.32%
18,O=S(=O)(NCCC1=CCCCC1)c1cccc(Br)c1,5.16%
19,CC1=C(C(=O)OC(C)C)C(c2cccc(F)c2)N2C(=O)C(C)SC2=N1 (stereo not drawn),-0.466%

row,SMILES,"hERG current change (%, negative = inhibition) at 10uM"
1,O=C(O)c1ccc(N=Cc2c(O)[nH]c(=O)[nH]c2=O)cc1,8.59%
2,O=C(c1cc(Cl)c(=O)n(Cc2ccccc2)c1)N1CCOCC1,-5.85%
3,COC(=O)c1c(NC(=S)Nc2ccc(C(=O)N3CCOCC3)cc2)sc2c1CCC2,12.2%
4,CC(C)(C)NC(=O)NC(=O)COC(=O)C1c2ccccc2Oc2ccccc21,-13.8%
5,Cc1ccc(O)c(-c2cc(-c3ccccc3F)[nH]n2)c1,10.3%
6,O=C(Cc1c(F)cccc1Cl)Nc1ccccc1N1CCCCC1,27.5%
7,O=c1[nH]c(NCCO)c(N=Cc2ccccc2)c(=O)[nH]1,31.2%
8,COc1ccc(N2C(=O)CCC(C(=O)NCc3ccccn3)C2c2ccc(F)cc2)cc1 (stereo not drawn),5.29%
9,Cc1ccc(OCC(=O)NCCCNC(=O)c2cccnc2)cc1,-0.212%
10,CN(c1ccccc1C(=O)N1CCN(Cc2ccc3c(c2)OCO3)CC1)S(C)(=O)=O,3.14%
11,Nc1nonc1-n1nnc(C(=O)N/N=C/c2ccoc2)c1-c1ccccc1,3.2%
12,CCOc1ccc(NC(=O)CCC(=O)N/N=C(\C)c2cccs2)cc1,14.3%
13,CCOC(=O)Cc1csc(NC(=O)c2cc3c(s2)CCCC3)n1,-29.2%
14,CCOC(=O)NC(=O)/C(C#N)=C(/C)N(C)C,17.3%
15,O=C1CS/C(=C/C(=O)c2ccccc2)N1,6.37%
16,CS(=O)(=O)N(Cc1ccc(Cl)cc1)c1ccc(C(=O)Nc2cccnc2)cc1,-37.4%
17,Cc1nc(NC(=O)C2CC3CCCC(C2)C3=O)sc1C (stereo not drawn),0.188%
18,Cc1ccc(S(=O)(=O)N2CCOCC2)cc1C(=O)NC1CCCCCC1,2.72%
19,CC(C)N1CCC(N2CCN(CC#Cc3ccccc3)CC2CCO)CC1 (stereo not drawn),0.615%

row,SMILES,"hERG current change (%, negative = inhibition) at 10uM"
1,CN(C)c1ccc(/C=N/n2ncc3ccccc32)cc1,0.149%
2,O=C(Cc1cccs1)Nc1ccc(C(=O)O)cc1,-0.374%
3,CCN(Cc1ccccc1)C(=O)Cn1cnc2c1c(=O)n(C)c(=O)n2C,-16.1%
4,N#CC1=C(N)OC(c2ccccc2)=C(C#N)C1c1ccc2c(c1)OCO2 (stereo not drawn),14.3%
5,CC(NC(=O)COC(=O)Cc1ccccc1[N+](=O)[O-])c1ccccc1 (stereo not drawn),15.9%
6,Br.N=C(N)SCCc1cccc(CCSC(=N)N)c1,0.563%
7,CN(C)c1ccc(/C=C2\SC(N3CCCCC3)=NC2=O)cc1,-21.8%
8,Cn1c(=O)c(=O)n(C)c2cc(N3CCCCC3)c(NS(=O)(=O)c3ccc(Br)cc3)cc21,-65.1%
9,CCCN(CCC)CCCNC(=O)c1cc2cc3ccc(Cl)cc3nc2o1,-61%
10,COc1ccc(CCNC(=O)[C@H](C)NC(=O)N2CCn3c2nc2ccccc23)cc1OC,13.1%
11,O=C(CN1C(=O)CC(c2ccccc2)S(=O)(=O)c2ccccc21)N1CCCCC1 (stereo not drawn),8.44%
12,O=C(NCCN1C(=O)C2C3C=CC(C3)C2C1=O)Nc1ccccc1O (stereo not drawn),-6.92%
13,CN(C)c1cccc(C(=O)NCc2ccc3c(c2)OCO3)c1,-32.6%
14,COc1ccc(/C=C2\SC(=S)N(NS(=O)(=O)c3ccccc3)C2=O)c(OC)c1,-33.1%
15,O=C1CN(c2ccccc2Cl)C(=O)CN1c1ccccc1Cl,-9.65%
16,O=C(CN1C(=O)C2C3CC(C(Br)C3Br)C2C1=O)OCC(=O)c1cccc([N+](=O)[O-])c1 (stereo not drawn),25.3%
17,O=C(Nc1cccnc1)c1cc(-c2cccs2)on1,-16.1%
18,CCCOc1ccc(N2C(=O)CC(N(Cc3ccco3)C(=O)CC)C2=O)cc1 (stereo not drawn),-0.0593%
19,O=C(Nc1ccc(F)cc1)C(c1ccccc1)N1CCN(S(=O)(=O)c2ccc3ccccc3c2)CC1 (stereo not drawn),7.46%
